# Reference: the supplement of paper PMC8728848
# The list shows a part of the results.
# Assays:
# Assay in all cases: glycan array binding signal (z-score within array); higher = stronger binding
# Settings in all cases: glycan notation: IUPAC condensed, linker removed
# [1] = target: GlcNAc(b1-3)Gal(b1-4)GlcNAc(b1-3)Gal(b1-4)GlcNAc(b1-3)GalNAc
# How it was run: (§1)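 Glycan array data were curated from 3228 arrays in the Consortium for Functional Glycomics database and kept only where the protein sequence was available. Glycan names were converted to IUPAC-condensed notation, and columns mapping to the same glycan were averaged. The binding signal is a within-array Z-score, averaged across arrays of the same protein sequence at different concentrations or buffers and across linkers. Negative Z-scores can be read as non-binding.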
# [2] = target: GlcNAc(b1-3)Gal(b1-4)GlcNAc(b1-3)GalNAc
# How it was run: as §1
# [3] = target: GlcNAc(b1-3)Gal(b1-4)GlcNAc(b1-3)[GlcNAc(b1-3)Gal(b1-4)GlcNAc(b1-3)]GalNAc
# How it was run: as §1
# [4] = target: GlcNAc(b1-3)Gal(b1-4)GlcNAc(b1-6)[Gal(b1-3)]GalNAc
# How it was run: as §1
# [5] = target: GlcNAc(b1-3)Gal(b1-4)GlcNAc(b1-6)[GlcNAc(b1-3)Gal(b1-3)]GalNAc
# How it was run: as §1
# [6] = target: GlcNAc(b1-3)Gal(b1-4)GlcNAc(b1-6)[GlcNAc(b1-3)]Gal(b1-4)GlcNAc
# How it was run: as §1
# [7] = target: GlcNAc(b1-3)GalNAc
# How it was run: as §1
# [8] = target: GlcNAc(b1-3)Man
# How it was run: as §1
# [9] = target: GlcNAc(b1-3)[GlcNAc(b1-4)][GlcNAc(b1-6)]GlcNAc
# How it was run: as §1
# [10] = target: GlcNAc(b1-3)[GlcNAc(b1-6)]Gal(b1-4)GlcNAc
# How it was run: as §1
# [11] = target: GlcNAc(b1-3)[GlcNAc(b1-6)]GalNAc
# How it was run: as §1
# [12] = target: GlcNAc(b1-4)Gal(b1-4)GlcNAc
# How it was run: as §1
# [13] = target: GlcNAc(b1-4)GlcNAc
# How it was run: as §1
# [14] = target: GlcNAc(b1-4)GlcNAc(b1-4)GlcNAc
# How it was run: as §1
# [15] = target: GlcNAc(b1-4)GlcNAc(b1-4)GlcNAc(b1-4)GlcNAc(b1-4)GlcNAc
# How it was run: as §1
# [16] = target: GlcNAc(b1-4)GlcNAc(b1-4)GlcNAc(b1-4)GlcNAc(b1-4)GlcNAc(b1-4)GlcNAc
# How it was run: as §1
# [17] = target: GlcNAc(b1-4)[GlcNAc(b1-6)]GalNAc
# How it was run: as §1
# [18] = target: GlcNAc(b1-6)Gal(b1-4)GlcNAc
# How it was run: as §1
# [19] = target: GlcNAc(b1-6)GalNAc
# How it was run: as §1
# [20] = target: GlcNAc6S(b1-3)Gal(b1-4)GlcNAc
# How it was run: as §1
# [21] = target: Kdn(a2-3)Gal(b1-3)GalNAc
# How it was run: as §1
# [22] = target: Kdn(a2-3)Gal(b1-3)GlcNAc
# How it was run: as §1
# [23] = target: Kdn(a2-3)Gal(b1-4)Glc
# How it was run: as §1
# [24] = target: Kdn(a2-3)Gal(b1-4)GlcNAc
# How it was run: as §1
# [25] = target: Kdn(a2-3)Gal(b1-4)[Fuc(a1-3)]GlcNAc
# How it was run: as §1
# [26] = target: Kdn(a2-6)Gal(b1-4)GlcNAc
# How it was run: as §1
# [27] = target: Man(a1-2)Man(a1-2)Man(a1-3)Man
# How it was run: as §1
# [28] = target: Man(a1-2)Man(a1-2)Man(a1-6)[Man(a1-3)]Man
# How it was run: as §1
# [29] = target: Man(a1-2)Man(a1-3)Man
# How it was run: as §1
# [30] = target: Man(a1-2)Man(a1-3)[Man(a1-2)Man(a1-6)]Man
# How it was run: as §1
# [31] = target: Man(a1-2)Man(a1-3)[Man(a1-2)Man(a1-6)]Man(a1-6)[Man(a1-2)Man(a1-2)Man(a1-3)]Man
# How it was run: as §1
# [32] = target: Man(a1-2)Man(a1-3)[Man(a1-2)Man(a1-6)]Man(a1-6)[Man(a1-2)Man(a1-2)Man(a1-3)]Man(b1-4)GlcNAc(b1-4)GlcNAc
# How it was run: as §1
# [33] = target: Man(a1-2)Man(a1-3)[Man(a1-6)]Man(a1-6)[Man(a1-2)Man(a1-3)]Man(b1-4)GlcNAc(b1-4)GlcNAc
# How it was run: as §1
# [34] = target: Man(a1-2)Man(a1-6)[Man(a1-3)]Man(a1-6)[Man(a1-2)Man(a1-2)Man(a1-3)]Man
# How it was run: as §1
# [35] = target: Man(a1-2)Man(a1-6)[Man(a1-3)]Man(a1-6)[Man(a1-2)Man(a1-2)Man(a1-3)]Man(b1-4)GlcNAc(b1-4)GlcNAc
# How it was run: as §1
# [36] = target: Man(a1-3)[Man(a1-6)]Man
# How it was run: as §1
# [37] = target: Man(a1-3)[Man(a1-6)]Man(a1-6)[Man(a1-2)Man(a1-3)]Man(b1-4)GlcNAc(b1-4)GlcNAc
# How it was run: as §1
# [38] = target: Man(a1-3)[Man(a1-6)]Man(a1-6)[Man(a1-3)]Man
# How it was run: as §1
# [39] = target: Man(a1-3)[Man(a1-6)]Man(a1-6)[Man(a1-3)]Man(b1-4)GlcNAc(b1-4)GlcNAc
# How it was run: as §1
# [40] = target: Man(a1-3)[Man(a1-6)]Man(b1-4)GlcNAc(b1-4)GlcNAc
# How it was run: as §1
# [41] = target: Man(a1-3)[Man(a1-6)]Man(b1-4)GlcNAc(b1-4)[Fuc(a1-6)]GlcNAc
# How it was run: as §1
# [42] = target: Man(a1-6)Man
# How it was run: as §1
# [43] = target: Man(b1-4)GlcNAc
# How it was run: as §1
# [44] = target: MurNAc(b1-4)GlcNAc
# How it was run: as §1
# [45] = target: Neu5Ac(a2-3)Gal
# How it was run: as §1
binder,measurement,setting,value
AidA (Burkholderia cenocepacia) (protein) MSRVTDVLVSFDTETILKKYPNPSKNPAAPTLIDWRYVYMVTNQDNVISGQAGGELDLKAQVGDLIRWRETSLSLGFENQVVFYKFIGNVGNDLISTPTPRVAEASIPVPNTSKPEVPTCQKVANYYWSSECLKVGRVTYHFQFQIIDRNCQSQGCFSWDPFISIHN,glycan array binding signal (z-score),[1],-0.341
same,glycan array binding signal (z-score),[2],-0.626
same,glycan array binding signal (z-score),[3],-0.928
same,glycan array binding signal (z-score),[4],-0.57
same,glycan array binding signal (z-score),[5],-0.341
same,glycan array binding signal (z-score),[6],-0.217
same,glycan array binding signal (z-score),[7],0.029
same,glycan array binding signal (z-score),[8],-0.022
same,glycan array binding signal (z-score),[9],-0.404
same,glycan array binding signal (z-score),[10],0.121
same,glycan array binding signal (z-score),[11],0.435
same,glycan array binding signal (z-score),[12],-0.493
same,glycan array binding signal (z-score),[13],0.215
same,glycan array binding signal (z-score),[14],-0.409
same,glycan array binding signal (z-score),[15],-0.717
same,glycan array binding signal (z-score),[16],-0.697
same,glycan array binding signal (z-score),[17],-0.528
same,glycan array binding signal (z-score),[18],0.144
same,glycan array binding signal (z-score),[19],0.657
same,glycan array binding signal (z-score),[20],-0.08
same,glycan array binding signal (z-score),[21],-0.133
same,glycan array binding signal (z-score),[22],0.184
same,glycan array binding signal (z-score),[23],-0.646
same,glycan array binding signal (z-score),[24],-0.162
same,glycan array binding signal (z-score),[25],-0.818
same,glycan array binding signal (z-score),[26],1.36
same,glycan array binding signal (z-score),[27],0.728
same,glycan array binding signal (z-score),[28],-0.685
same,glycan array binding signal (z-score),[29],0.489
same,glycan array binding signal (z-score),[30],-0.113
same,glycan array binding signal (z-score),[31],-0.055
same,glycan array binding signal (z-score),[32],0.274
same,glycan array binding signal (z-score),[33],0.318
same,glycan array binding signal (z-score),[34],-0.364
same,glycan array binding signal (z-score),[35],-0.346
same,glycan array binding signal (z-score),[36],0.256
same,glycan array binding signal (z-score),[37],-0.496
same,glycan array binding signal (z-score),[38],-0.413
same,glycan array binding signal (z-score),[39],0.304
same,glycan array binding signal (z-score),[40],-0.131
same,glycan array binding signal (z-score),[41],1.97
same,glycan array binding signal (z-score),[42],0.443
same,glycan array binding signal (z-score),[43],0.146
same,glycan array binding signal (z-score),[44],-0.336
same,glycan array binding signal (z-score),[45],-0.347
